Source: patent US20190038733A1

Target: CD3ε (human CD3 epsilon subunit, expressed from cDNA in K562 cells; endogenous in Jurkat cells and T lymphocytes) (human) (UniProt P07766)
Assay: cell-based or functional assay

- median percentage of T cells expressing TCRαβ after PEBL transduction: 25%
B1: anti-CD3ε Protein Expression Blockers (PEBLs): PLU4-derived scFv linked to a retention-signaling / localizing domain (scFv, part only; not given: localizing domain of each construct, part only)
scFv, part: QIVLTQSPAIMSASPGEKVTMTCSASSSVSYMNWYQQKSGTSPKRWIYDTSKLASGVPAHFRGSGSGTSYSLTISGMEAEDAATYYCQQWSSNPFTFGSGTKLEINRGGGGSGGGGSGGGGSGGGGSEVQLQQSGAELARPGASVKMS[… about 80 residues …]WGQGTTLTVSSA
